According to PubChem BioAssay AID686978 (National Center for Advancing Translational Sciences (NCATS), 2013):
The campaign covered roughly 420,000 compounds. About 64,000 (15%) were called active. The inconclusive results got no clear call from the source; some entries with a clear call stand among them for comparison. Calls follow the shape of the dose curve; as a rule, active = well fitted inhibition curve with a large enough effect; inconclusive = small, poorly fitted or top-dose-only effect; inactive = flat fitted curve, though single readings scatter. Potencies of inconclusive entries are left out as doubtful fits.

Experiment: qHTS for Inhibitors of human tyrosyl-DNA phosphodiesterase 1 (TDP1): qHTS in cells in absence of CPT; also: nearly all actives have a fitted effect of over 55% in size
Details: DT40 Tdp1-/- hTDP1 cells, no CPT, ATP luminescence, 48 h; activity change, negative = growth inhibition: at 46.2 µM (top of the series) unless noted
In short: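 Chicken DT40 Tdp1-/- cells complemented with human TDP1, screened without camptothecin (DMSO vehicle only), 400 cells/well. Compounds pin-transferred, cells incubated at 37 °C for at least 48 hr. Growth read as ATP-dependent luminescence (CellTiter-Glo, 30 min at RT).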
% is scaled to controls: 0 for no effect and ±100 for the full control effect; potency is read from the fitted curve at half-maximal effect; tags tell the direction and shape of the fitted curve.

Row | Structure (SMILES) | Potency | activity change, negative = growth inhibition
1 | COC(=O)N1C(=O)[C@](Cc2ccccc2)(c2ccccc2)N1C(=O)OC | active: 11.6 µM | –
2 | CCN1CCCC1CNC(=O)c1cnn(-c2nccc(-c3ccccc3OC)n2)c1-c1ccco1 (stereo unspecified) | active: 7.31 µM | –
3 | C#CCN(C[C@@H]1[C@@H](OC(=O)NCc2ccc(OC)c(OC)c2)[C@@H](OC(=O)NCc2ccc(OC)c(OC)c2)Cn2c(=O)n(CCCCCC)c(=O)n21)S(=O)(=O)c1ccc(C)cc1 | – | inactive: -28.4%
4 | COC(=O)c1ccc(C23CC4(C2)[C@H](CN(Cc2ccc(C(F)(F)F)cc2)[C@@H]4c2ccccc2)C3c2ccc(Cl)nc2)cc1 (stereo partly specified) | active: 10.3 µM | –
5 | O=C(CN1C(=O)NC2(CCCCCC2)C1=O)c1ccc2c(c1)OCCO2 | inconclusive [inhibitor, partial curve] | –
6 | CCc1cc2cc(C)cc(C)c2nc1SCC(=O)N1CCCC1 | inconclusive [inhibitor, single point] | –
7 | O=C(Nc1cccc(Cl)c1)C1CCCN1S(=O)(=O)c1cccc2cccnc12 (stereo unspecified) | inconclusive [inhibitor, single point] | –
8 | COc1ccc(S(=O)(=O)N(CC(=O)NCc2cccnc2)c2ccc(C)cc2)cc1OC | – | inactive: -29.8%
9 | c1ccc(-c2nnc3ccc(N4CCC5(CC4)OCCO5)nn23)cc1 | inconclusive [inhibitor, single point] | –
10 | CC(CC(=O)Nc1ccncc1)c1ccccc1 (stereo unspecified) | inconclusive [inhibitor, single point] | –
11 | CC(C)(C)C(=O)NCCCc1nc2ccccc2n1CCCOc1ccc(Cl)cc1 | active: 8.2 µM | –
12 | COc1cccc(/C=N/NC(=O)CC2C(=O)NN=C2C)c1O (stereo unspecified) | – | inactive: -3.05%
13 | Cc1cc(Cl)ccc1OCc1cc(=O)n2c3c(sc2n1)CCCC3 | – | inactive: 0.158%
14 | Cc1ccc2nc(Nc3ccc4[nH]c(=O)[nH]c4c3)c(-n3nc(C)cc3C)nc2c1 | inconclusive [inhibitor, single point] | –
15 | O=C(Cn1c(=O)oc2ccccc21)Nc1nnc(N2CCCCCC2)s1 | – | inactive: -22.4%
16 | Cc1cccc(NC(=S)NC(=O)c2cc(-c3ccccc3)nc3ccccc23)c1 | inconclusive [inhibitor, single point] | –
17 | Cc1cc(S(=O)(=O)N2CCC(NC(=O)C34CC5CC(CC(C5)C3)C4)CC2)ccc1-n1cnnn1 | inconclusive [inhibitor, single point] | –
18 | Cc1ccc(C(=O)/C=C/c2ccc(-c3ccccc3[N+](=O)[O-])o2)cc1 | active: 18.4 µM | –
19 | O=C(NCC1CCCO1)NC1(C(F)(F)F)Oc2ccccc2O1 (stereo unspecified) | inconclusive [inhibitor, single point] | –
20 | CC(C)C(NC(=O)COc1ccc2ccccc2c1)C(=O)N/N=C/C=C/c1ccccc1 (stereo unspecified) | inconclusive [inhibitor, partial curve] | –
21 | CCCN1CNc2c(c(=O)[nH]c(=S)n2CCc2cccc(Cl)c2)C1 | inconclusive [inhibitor, partial curve] | –
22 | Cc1ccc(Cc2c(-c3ccc(C#N)cc3)nc3ccc(Br)cn23)cc1 | inconclusive [inhibitor, partial curve, poor fit] | –
23 | O=C1CCCN1CCCNc1ncnc2c1[nH]c1ccccc12 | – | inactive: -24.8%

Row | Structure (SMILES) | Potency | activity change, negative = growth inhibition
24 | CCCS(=O)(=O)N1CCC(C(=O)N2CCC(Cc3ccccc3)CC2)CC1 | active: 20.6 µM | –
25 | CC(=O)Nc1sc2c(c1CN1CCN(c3ccccn3)CC1)CCCC2 | inconclusive [inhibitor, single point] | –
26 | Cc1ccc(OCCNC(=O)CNC(=O)c2ccc3c(c2)OCO3)cc1 | – | inactive: -15.4%
27 | COc1cccc(C(=O)Nc2cc(NC(=O)c3ccco3)ccc2OC)c1 | inconclusive [inhibitor, partial curve, poor fit] | –
28 | O=C(O)/C=C/c1ccc2c(-c3ccccc3)onc2c1 | inconclusive [inhibitor, single point] | –
29 | CCCCn1c(-c2ccoc2C)n[nH]c1=S | – | inactive: -11.5%
30 | CC(C)(C(=O)N1CCC1(C)C(=O)NS(=O)(=O)c1ccc(Br)cc1)c1ccccc1 (stereo unspecified) | – | inactive: -10.3%
31 | Cc1cc(C)c2sc(N(CCN(C)C)C(=O)c3cc(Cl)sc3Cl)nc2c1 | – | inconclusive: -31.2% [inhibitor]
32 | COc1cccc(C(c2nnnn2Cc2ccccc2)N2CCN(C3CCCC3)CC2)c1OC (stereo unspecified) | inconclusive [inhibitor, partial curve] | –
33 | CCN(CC(=O)NCCc1ccccc1)S(=O)(=O)c1ccccc1 | – | inactive: -17.2%
34 | O=C(NC1CCCCC1)N(Cc1cc2cc3c(cc2[nH]c1=O)OCCO3)C1CCCCC1 | inconclusive [inhibitor, single point] | –
35 | COc1ccc(N2CCN(C(CNC(=O)C(=O)NC3CCCC3)c3ccco3)CC2)cc1 (stereo unspecified) | – | inactive: -16.7%
36 | C(=N\n1cnnc1)/c1cn(-c2cccs2)nc1-c1ccccc1 | inconclusive [inhibitor, single point] | –
37 | CCC(=O)N1CCN(c2nnc(-c3ccccc3)c3ccccc23)CC1 | – | inactive: -21.7%
38 | Cc1ccc(-c2n[nH]c(=O)c3ccccc23)cc1S(=O)(=O)N(C)C | inconclusive [inhibitor, single point] | –
39 | COc1ccc(/C(C)=N/NC(=S)NCCc2ccccc2)cc1 | inconclusive [inhibitor, single point] | –
40 | c1ccc(C(=C2CCCO2)c2ccccc2)cc1 | – | inactive: -6.4%
41 | CC1=C(C(=O)N(C(C)C)C(C)C)CC(CC(=O)NC2CCCCC2)C(=O)N1Cc1ccc(F)cc1 (stereo unspecified) | inconclusive [inhibitor, single point] | –
42 | O=C(Nc1ccc(F)c(Cl)c1)c1ccc2sc([C@@H]3O[C@H](CO)[C@H](O)[C@H](O)[C@H]3O)nc2c1 | – | inactive: -10.5%
43 | N[C@@H](Cc1cc(CP(=O)(O)O)cc(-c2ccccc2Cl)c1)C(=O)O | – | inactive: 1.38%
44 | O=c1c2ccccc2ncn1-c1ccc(Br)cc1[N+](=O)[O-] | – | inactive: -2.56%
45 | O=C(O)c1ccccc1C(=O)Nc1ccc(Nc2ccc([N+](=O)[O-])cc2[N+](=O)[O-])cc1 | – | inactive: -17.3%
46 | COc1ccccc1NC(=O)c1cc(S(=O)(=O)N2CCc3ccccc32)ccc1F | inconclusive [inhibitor, partial curve] | –
